From ChEMBL document CHEMBL4888484, “Replenishing the malaria drug discovery pipeline: Screening and hit evaluation of the MMV Hit Generation Library 1 (HGL1) against asexual blood stage Plasmodium falciparum ,using a nano luciferase reporter read-out” (2022)
Hit rate of the full screen: of about 150,000 compounds, about 540 (0.36%) showed an effect of 50% or more. The list shows a part of the results.

These compounds were tested on Plasmodium falciparum (assay: Primary screen in NF54 nanoGlo assay, in single point, at 2uM, 72h; a lower Z score goes with more inhibition). Settings: timepoint 72 hour.
Assay type: functional, Erythrocyte
For `Cc1ccc(C)c(-c2cc(C(=O)O)cc(S(=O)(=O)N3CCN(C)CC3)c2)c1`, the “% Inhibition” value was -3% and the Z score was 0.4. For `CC(=O)NC1CCC(NCC2(c3c(F)cccc3F)CC2)CC1` (centres undefined), the “% Inhibition” value was -1% and the Z score was 0.06. For `COc1ccc(-c2ccc(N3CCN(C(=O)CN(Cc4ccc(F)cc4)C(=O)c4ccccc4F)CC3)nn2)cc1OC`, the “% Inhibition” value was -8% and the Z score was 1.39. `O=C(NCC1OCCc2sccc21)C1CCN(C2CCCCC2)C1` (centres undefined) was tested, and the “% Inhibition” value was -2% and the Z score was 0.19. With `O=C(Nc1cncc(F)c1)c1ccsc1` the “% Inhibition” value was -12% and the Z score was 1.89. `CC1(C)CCCN(CCNCc2cc(C(N)=O)cs2)C1` was tested, and the “% Inhibition” value was -9% and the Z score was 0.91. For `Cn1ccn2ncc(C(=O)Nc3ccc(N4CCCC4)c4ncccc34)c12`, the “% Inhibition” value was -17% and the Z score was 1.86. `C1=C[C@@H]2C[C@H]1C[C@@H]2c1nc(C2CC2)nn1-c1ccccn1` was tested, and the “% Inhibition” value was -12% and the Z score was 1.55. In the case of `CCN(CC)C(=O)CN1C(=O)NC2(CCCCCCC2)C1=O`, the “% Inhibition” value is reported as -9% and the Z score is reported as 1.15. With `CC1(C)CN(C(=O)[C@@H]2CCCc3nccn32)CCN1CCO` the “% Inhibition” value was 2% and the Z score was -0.29. In the case of `CCNC(=O)N1CC(S(=O)(=O)c2ccc(F)cc2)C1`, the “% Inhibition” value is reported as -4% and the Z score is reported as 0.8. With `CC(C)Oc1ccccc1CN1C[C@H](COc2cccnc2)C2(CCOCC2)C1` the “% Inhibition” value was -9% and the Z score was 1.18. For `CCN(c1ccsc1C(=O)NCc1ccccc1Cl)S(=O)(=O)c1ccccc1`, the “% Inhibition” value was -2% and the Z score was 0.25. In the case of `Cc1noc(C)c1CCC(=O)N1CC(Oc2ccccc2Cl)C1`, the “% Inhibition” value is reported as -7% and the Z score is reported as 1.34. `Cc1nc([C@@H](O)Cc2ccccc2)n(-c2ncccc2C)n1` was tested, and the “% Inhibition” value was -13% and the Z score was 1.82. `CCC1(CNC(=O)NCCCN2CCCC2=O)CCCC1` was tested, and the “% Inhibition” value was 0% and the Z score was 0.04. For `O=C1c2ccccc2N[C@H](c2ccccc2Br)N1CCCN1CCOCC1`, the “% Inhibition” value was -13% and the Z score was 2.4. For `CCS(=O)(=O)N[C@H]1COCC[C@@H]1Oc1ccccn1`, the “% Inhibition” value was -1% and the Z score was 0.3. For `Cc1c(NC(=O)N2CCC[C@H](n3nccc3C(F)(F)F)C2)c(=O)n(-c2ccccc2)n1C`, the “% Inhibition” value was -6% and the Z score was 0.97. In the case of `CCCc1noc(-c2ccc(-c3ccc(CC)cc3)cc2)n1`, the “% Inhibition” value is reported as -11% and the Z score is reported as 2.13. `O=C(c1ccc(-n2cccn2)nc1)N1CCN(c2cccc(Cl)c2)CC1` was tested, and the “% Inhibition” value was -14% and the Z score was 1.66. With `CCc1csc(CCNC(=O)C2(COC)CCC2)n1` the “% Inhibition” value was -5% and the Z score was 0.79. In the case of `O=C(c1cccc(S(=O)(=O)NC[C@H](O)CO)c1)N1CCC2(CCCC2)C1`, the “% Inhibition” value is reported as -19% and the Z score is reported as 1.84. With `Cc1cccc(CC(=O)Nc2cnn(-c3cccc(C(=O)NCc4ccc5nonc5c4)c3)c2)c1` the “% Inhibition” value was -4% and the Z score was 0.49. With `CCC(C)N1C(=O)CCC1C(=O)N1CCN(c2ccc(F)cc2)CC1` (centres undefined) the “% Inhibition” value was -12% and the Z score was 2.1. For `CCC[C@@H]1NC(=O)c2ccc(OC)c(c2)OCCCn2cc(nn2)CNC(=O)[C@@H](Cc2ccccc2)NC1=O`, the “% Inhibition” value was -1% and the Z score was 0.27. With `CC(NC(=O)CNC(=O)c1cccs1)C(O)c1ccc(F)cc1` (centres undefined) the “% Inhibition” value was -16% and the Z score was 1.82. For `c1cc(-c2ccc(N3CCNCC3)nn2)ccn1`, the “% Inhibition” value was 5% and the Z score was -1.03. With `CC(C)CC(=O)Nc1ccc(N2CCCN(C(=O)NC(C)C)CC2)c(C(=O)N(C)Cc2ccccc2)c1` the “% Inhibition” value was -5% and the Z score was 0.66. In the case of `COc1cccc(-c2nc3ccc(-c4cc(C)ccc4C)cn3c2CN2CCN(C(=O)C3CCCC3)CC2)c1`, the “% Inhibition” value is reported as -33% and the Z score is reported as 2.94. With `CN(Cc1cnn(C)c1)C(=O)c1cnn(-c2ccc(Cl)cc2Cl)c1C1CC1` the “% Inhibition” value was -4% and the Z score was 0.66. In the case of `O=C(CN1CCCCC1=O)N[C@H]1CCCN(C2CCCCCC2)C1`, the “% Inhibition” value is reported as -7% and the Z score is reported as 1.33. With `CNc1cc(C(N)=O)c(Cl)cc1Cl` the “% Inhibition” value was -15% and the Z score was 1.52. With `O=C1C[C@@H]2O[C@H](CN(Cc3ccc(F)c(F)c3)C[C@@H]3CN(CCO3)C(=O)[C@@H]3C[C@@H](CN3Cc3ccc4c(c3)OCO4)N1)[C@@H](O)[C@H]2O` the “% Inhibition” value was -7% and the Z score was 1.05. In the case of `CN1Cc2ccccc2C[C@H]1C(=O)N(Cc1ccccn1)C1CCCCC1`, the “% Inhibition” value is reported as 9% and the Z score is reported as -1.22. With `COC1CCCC(CC(=O)NC2CC(=O)N(C)C2)C1` (centres undefined) the “% Inhibition” value was 2% and the Z score was -0.4. For `O=C(Nc1ccc2c(c1)COC2=O)c1ccc(Cl)c(Cl)c1`, the “% Inhibition” value was 5% and the Z score was -0.59. In the case of `O=C(Nc1nc(=O)[nH]s1)c1ccccc1`, the “% Inhibition” value is reported as 1% and the Z score is reported as -0.18. In the case of `COc1ccc(S(=O)(=O)NC[C@H]2Cc3ccccc3O2)cc1`, the “% Inhibition” value is reported as 2% and the Z score is reported as -0.32. `O=C(Nc1cc(C(F)(F)F)cc2nsnc12)c1sc2ccccc2c1Cl` was tested, and the “% Inhibition” value was 8% and the Z score was -1.11. For `CCN(C(=O)NCCc1ccc(C)nc1)[C@@H](C)CS(C)(=O)=O`, the “% Inhibition” value was -6% and the Z score was 0.83. `O=C(NCC1(O)CCC1)Nc1nccs1` was tested, and the “% Inhibition” value was -3% and the Z score was 0.29.
